# Experimental data from the supplement of paper PMC12217912.
# The other results are listed elsewhere or left out. The full chains were built here from the parent and the listed change. Inactive controls read about 0.05.
# B1: TEV protease; numbered along this chain (parent)
# chain: MGESLFKGPRDYNPISSSICHLTNESDGHTTSLYGIGFGPFIITNKHLFRRNNGTLVVQSLHGVFKVKDTTTLQQHLVDGRDMIIIRMPKDFPPFPQKLKFREPQREERICLVTTNFQTKSMSSMVSDTSCTFPSGDGIFWKHWIQTKDGQCGSPLVSTRDGFIVGIHSASNFTNTNNYFTSVPKNFMELLTNQEAQQWVSGWRLNADSVLWGGHKVFMVKPEEPFQPVKEATQL
# Variants of: B1
# Assay: raw area under fraction-flipped curve 0-4 h after induction (AUC4h, not background-subtracted), DNA-recorder readout of cleavage of the substrate (dimensionless); higher = more cleavage of the substrate by the protease variant
# Settings: temperature: 34 °C; time window: 0-4 h after rhamnose induction
# 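Note: Bxb1 expression induced with 0.2% (w/v) L-rhamnose at OD600 near 0.5, cultures sampled hourly, flipped fraction per protease–substrate barcode pair counted by paired-end Illumina sequencing.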
Variant,area with substrate ENLYFQC,area with substrate ENLYFQI,area with substrate ENLYFQL,area with substrate ENLYFQM,area with substrate ENLYFQN,area with substrate ENLYFQR,area with substrate ENLYFQS,area with substrate ENLYFQT,area with substrate ENLYFQW,area with substrate ENLYFQY,area with substrate ENLYFQD,area with substrate ENLYFQE,area with substrate ENLYFQH,area with substrate ENLYFQK,area with substrate ENLYFQV,area with substrate ENLYFQF,area with substrate ENLYFQG,area with substrate ENLYFQP,area with substrate ENLYFQQ
MGESLFKGPRDYNPISSSICHLTNESDGHTTSLYGIGFGPFIITNKHLFRRNNGTLVVQSLHGVFKVKDTTTLQQHLVDGRDMIIIRMPKDFPPFPQKLKFREPQREERICLVTTNFQTKSMSSMVSDTSCTFPSGDGIFWKHWIQTKDGQCGSPLVSTRDGFIVGIMSASNFTNTNNYFTSVPKNFMELLTNQEAQQWVSGWRLNADSVLWGGHKVFMVKPEEPFQPVKEATQL [H168M],0.0618,0.0392,0.0685,0.0633,0.0574,0.0573,0.0622,0.067,0.0559,0.0667,–,–,–,–,–,–,–,–,–
MGESLFKGPRDYNPISSSICHLTNESDGHTTSLYGIGFGPFIITNKHLFRRNNGTLVVQSLHGVFKVKDTTTLQQHLVDGRDMIIIRMPKDFPPFPQKLKFREPQREERICLVTTNFQTKSMSSMVSDTSCTFPSGDGIFWKHWIQTKDGQCGSPLVSTRDGFIVGIYSASNFTNTNNYFTSVPKNFMELLTNQEAQQWVSGWRLNADSVLWGGHKVFMVKPEEPFQPVKEATQL [H168Y],0.0668,0.0552,0.053,0.0559,0.0609,0.0533,0.0579,0.0657,0.051,–,0.0678,0.0632,0.0638,0.0437,0.0553,–,–,–,–
MGESLFKGPRDYNPISSSICHLTNESDGHTTSLYGIGFGPFIITNKHLFRRNNGTLVVQSLHGVFKVKDTTTLQQHLVDGRDMIIIRMPKDFPPFPQKLKFREPQREERICLVTTNFQTKSMSSMVSDTSCTFPSGDGIFWKHWIQTKDGQCGSPLVSTRDGFIVGIKSASNFTNTNNYFTSVPKNFMELLTNQEAQQWVSGWRLNADSVLWGGHKVFMVKPEEPFQPVKEATQL [H168K],0.0532,0.0546,–,0.0546,0.041,0.0424,0.0575,0.0526,0.0438,–,–,–,–,0.0573,0.0647,0.0719,–,–,–
MGESLFKGPRDYNPISSSICHLTNESDGHTTSLYGIGFGPFIITNKHLFRRNNGTLVVQSLHGVFKVKDTTTLQQHLVDGRDMIIIRMPKDFPPFPQKLKFREPQREERICLVTTNFQTKSMSSMVSDTSCTFPSGDGIFWKHWIQTKDGQCGSPLVSTRDCFIVGIHSASNFTNTNNYFTSVPKNFMELLTNQEAQQWVSGWRLNADSVLWGGHKVFMVKPEEPFQPVKEATQL [G162C],0.0972,–,0.0618,0.0777,0.0698,0.0631,0.095,0.0702,0.0536,0.0734,0.0705,–,0.0867,0.0535,0.0629,0.0687,0.0978,0.0663,0.0658
MGESLFKGPRDYNPISSSICHLTNESDGHTTSLYGIGFGPFIITNKHLFRRNNGTLVVQSLHGVFKVKDTTTLQQHLVDGRDMIIIRMPKDFPPFPQKLKFREPQREERICLVTTNFQTKSMSSMVSDTSCTFPSGDGIFWKHWIQTKDGQCGSPLVSTRDGFIVGIHSASNFTNSNNYFTSVPKNFMELLTNQEAQQWVSGWRLNADSVLWGGHKVFMVKPEEPFQPVKEATQL [T176S],0.0766,–,0.0594,0.0984,0.0749,–,0.0849,0.0576,0.0667,0.0714,0.0687,–,–,0.0658,0.0507,–,0.0797,0.0476,–
MGESLFKGPRDYNPISSSICHLTNESDGHTTSLYGIGFGPFIITNKHLFRRNNGTLVVQSLHGVFKVKDTTTLQQHLVDGRDMIIIRMPKDFPPFPQKLKFREPQREERICLVTTNFQTKSMSSMVSDTSCTFPSGDGIFWKHWIQTKDGQCGSPLVSTRDGFIVGIHSASNFTNMNNYFTSVPKNFMELLTNQEAQQWVSGWRLNADSVLWGGHKVFMVKPEEPFQPVKEATQL [T176M],0.0825,–,0.0593,0.072,0.063,0.0707,0.0736,0.0742,0.0468,–,0.0669,–,0.0805,0.0515,0.0557,–,–,–,–
MGESLFKGPRDYNPISSSICHLTNESDGHTTSLYGIGFGPFIITNKHLFRRNNGTLVVQSLHGVFKVKDTTTLQQHLVDGRDMIIIRMPKDFPPFPQKLKFREPQREERICLVTTNFQTKSMSSMVSDTSCTFPSGDGIFWKHWIQTKDGQCGSPLVSTRDGFIVGIHSASNFTNTNNYFTSVPKNFMELLTNQEAQQWVSGWRLNADSVLWGGHFVFMVKPEEPFQPVKEATQL [K216F],0.0894,0.0473,0.058,0.075,0.0581,–,0.0829,0.0647,–,–,0.059,–,0.0702,0.0658,–,–,0.0857,–,–
MGESLFKGPRDYNPISSSICHLTNESDGHTTSLYGIGFGPFIITNKHLFRRNNGTLVVQSLHGVFKVKDTTTLQQHLVDGRDMIIIRMPKDFPPFPQKLKFREPQREERICLVTTNFQTKSMSSMVSDTSCTFPSGDGIFWKHWIQTKDGQCGSPLVSTRDGFIVGIHSASNFTNTNNYFTSVPKNFMELLTNQEAQQWVSGWRLNAVSVLWGGHKVFMVKPEEPFQPVKEATQL [D208V],0.0537,–,0.0612,–,0.067,0.0679,0.0678,–,0.0513,0.0484,–,–,0.0675,0.0748,0.0515,–,–,–,–
MGESLFKGPRDYNPISSSICHLTNESDGHTTSLYGIGFGPFIITNKHLFRRNNGTLVVQSLHGVFKVKDTTTLQQHLVDGRDMIIIRMPKDFPPFPQKLKFREPQREERICLVTTNFQTKSMSSMVSDTSCTFPSGDGIFWKHWIQTKDGQCGSPLVSTRDGFIVGIHSASNFTNTNNYFTSVPKNFMELLTNQEAQQWVSGWRLNAKSVLWGGHKVFMVKPEEPFQPVKEATQL [D208K],0.0831,0.0795,–,–,–,–,0.0819,–,–,–,–,–,–,–,0.044,–,0.0738,–,–
MGESLFKGPRDYNPISSSICHLTNESDGHTTSLYGIGFGPFIITNKHLFRRNNGTLVVQSLHGVFKVKDTTTLQQHLVDGRDMIIIRMPKDFPPFPQKLKFREPQREERICLVTTNFQTKSMSSMVSDTSCTFPSGDGIFWKHWIQTKDGQCGSPLVSTRDGFIVGIHSASNFTNTNNYFTSVPKNFMELLTNQEAQQWVSGWRLNAQSVLWGGHKVFMVKPEEPFQPVKEATQL [D208Q],0.0795,0.0594,0.058,0.073,0.0755,0.0706,0.0784,–,–,0.0629,–,0.0711,–,0.0636,–,–,0.0722,0.0405,–
MGESLFKGPRDYNPISSSICHLTNESDGHTTSLYGIGFGPFIITNKHLFRRNNGTLVVQSLHGVFKVKDTTTLQQHLVDGRDMIIIRMPKDFPPFPQKLKFREPQREERICLVTTNFQTKSMSSMVSDTSCTFPSGDGIFWKHWIQTKDGQCGSPLVSTRDGFIVGIHSASNFTNTNNYFTSVPKNFMELLTNQEAQQWVSGWRLNASSVLWGGHKVFMVKPEEPFQPVKEATQL [D208S],0.0898,0.0586,–,–,0.0673,–,0.0984,0.0591,–,–,–,–,–,0.0714,0.0881,–,0.101,0.0483,–
MGESLFKGPRDYNPISSSICHLTNESDGHTTSLYGIGFGPFIITNKHLFRRNNGTLVVQSLHGVFKVKDTTTLQQHLVDGRDMIIIRMPKDFPPFPQKLKFREPQREERICLVTTNFQTKSMSSMVSDTSCTFPSGDGIFWKHWIQTKDGQCGSPLVSTRDGFIVGIHSASNFTNTNNYFTSVPKNFMELLTNQEAQQWVSGWRLNAESVLWGGHKVFMVKPEEPFQPVKEATQL [D208E],0.0891,–,–,0.0665,–,–,0.101,0.0774,–,–,0.0463,–,–,–,–,0.074,–,–,0.059
MGESLFKGPRDYNPISSSICHLTNESDGHTTSLYGIGFGPFIITNKHLFRRNNGTLVVQSLHGVFKVKDTTTLQQHLVDGRDMIIIRMPKDFPPFPQKLKFREPQREERICLVTTNFQTKSMSSMVSDTSCTFPSGDGIFWKHWIQTKDGQCGSPLVSTRDGFIVGIHSASNFTNTNNYFTSVPKNFMELLTNQEAQQWISGWRLNADSVLWGGHKVFMVKPEEPFQPVKEATQL [V200I],0.148,–,0.0424,–,0.085,–,0.105,0.113,–,–,–,–,–,–,–,–,0.148,0.0709,–
MGESLFKGPRDYNPISSSICHLTNESDGHTTSLYGIGFGPFIITNKHLFRRNNGTLVVQSLHGVFKVKDTTTLQQHLVDGRDMIIIRMPKDFPPFPQKLKFREPQREERICLVTTNFQTKSMSSMVSDTSCTFPSGDGIFWKHWIQTKDGQCGSPLVSTRDGFIVGIHSASNFTNTNNYFTSVPKNFMELLINQEAQQWVSGWRLNADSVLWGGHKVFMVKPEEPFQPVKEATQL [T192I],0.106,0.0574,0.0747,0.0851,0.0922,0.0592,0.094,0.0694,0.0707,0.0838,–,0.06,0.0807,0.0592,0.0592,–,0.0821,–,0.106
MGESLFKGPRDYNPISSSICHLTNESDGHTTSLYGIGFGPFIITNKHLFRRNNGTLVVQSLHGVFKVKDTTTLQQHLVDGRDMIIIRMPKDFPPFPQKLKFREPQREERICLVTTNFQTKSMSSMVSDTSCTFPSGDGIFWKHWIQTKDGQCGSPLVSTRDGFIVGIHSASNFTNTNNYFTSVPKNFMELLGNQEAQQWVSGWRLNADSVLWGGHKVFMVKPEEPFQPVKEATQL [T192G],0.118,–,0.0675,0.0614,–,–,0.0862,–,0.0503,–,–,–,0.0645,0.0586,0.0635,0.0646,0.104,–,–
MGESLFKGPRDYNPISSSICHLTNESDGHTTSLYGIGFGPFIITNKHLFRRNNGTLVVQSLHGVFKVKDTTTLQQHLVDGRDMIIIRMPKDFPPFPQKLKFREPQREERICLVTTNFQTKSMSSMVSDTSCTFPSGDGIFWKHWIQTKDGQCGSPLVSTRDGFIVGIHSASNFTNTNNYFTSVHKNFMELLTNQEAQQWVSGWRLNADSVLWGGHKVFMVKPEEPFQPVKEATQL [P184H],0.0969,0.0555,0.0545,0.063,0.0532,–,0.0726,–,0.0785,–,–,–,–,0.0446,–,–,0.0516,0.0491,–
MGESLFKGPRDYNPISSSICHLTNESDGHTTSLYGIGFGPFIITNKHLFRRNNGTLVVQSLHGVFKVKDTTTLQQHLVDGRDMIIIRMPKDFPPFPQKLKFREPQREERICLVTTNFQTKSMSSMVSDTSCTFPSGDGIFWKHWIQTKDGQCGSPLVSTRDGFIVGIHSASNFTNTNNYFTSVLKNFMELLTNQEAQQWVSGWRLNADSVLWGGHKVFMVKPEEPFQPVKEATQL [P184L],0.0622,0.0532,0.0481,0.0532,0.054,–,0.0622,–,0.062,0.0564,–,–,0.0594,0.0379,0.0655,0.0762,–,0.056,0.0446
MGESLFKGPRDYNPISSSICHLTNESDGHTTSLYGIGFGPFIITNKHLFRRNNGTLVVQSLHGVFKVKDTTTLQQHLVDGRDMIIIRMPKDFPPFPQKLKFREPQREERICLVTTNFQTKSMSSMVSDTSCTFPSGDGIFWKHWIQTKDGQCGSPLVSTRDGFIVGIHSASNFTNTNNYFTSVWKNFMELLTNQEAQQWVSGWRLNADSVLWGGHKVFMVKPEEPFQPVKEATQL [P184W],0.0719,0.0469,0.0569,0.0639,0.0589,0.0491,0.0624,0.0355,0.0649,0.0687,–,–,0.0612,0.0482,0.0561,–,0.0266,–,–
MGESLFKGPRDYNPISSSICHLTNESDGHTTSLYGIGFGPFIITNKHLFRRNNGTLVVQSLHGVFKVKDTTTLQQHLVDGRDMIIIRMPKDFPPFPQKLKFREPQREERICLVTTNFQTKSMSSMVSDTSCTFPSGDGIFWKHWIQTKDGQCGSPLVSTRDGFIVGIHSASNFTNTNNYFTSVPKNFMELLTNQEAQQWVSGARLNADSVLWGGHKVFMVKPEEPFQPVKEATQL [W203A],0.0547,0.0543,–,0.0622,0.0673,0.0645,0.074,0.0616,0.0562,–,0.0487,–,–,0.0672,0.0478,0.0584,0.0748,–,–
